# Measured values taken from PubChem BioAssay AID1476 (National Center for Advancing Translational Sciences (NCATS), 2009).
# Screen size: about 200,000 compounds; about 4,500 (2.2%) were called active. This list was built around the results that the source calls inconclusive (neither active nor inactive); the mix of calls is not that of the screen. Calls follow the shape of the dose curve; as a rule, active = well fitted inhibition curve with a large enough effect; inconclusive = small, poorly fitted or top-dose-only effect, or effect the other way; inactive = flat fitted curve, though single readings scatter. Potencies of inconclusive entries are doubtful fits and often do not repeat.
# Molecular target: Cruzipain (Trypanosoma cruzi) (UniProt P25779)
# Sequence of UniProt P25779 (P25779 whole entry, looked up): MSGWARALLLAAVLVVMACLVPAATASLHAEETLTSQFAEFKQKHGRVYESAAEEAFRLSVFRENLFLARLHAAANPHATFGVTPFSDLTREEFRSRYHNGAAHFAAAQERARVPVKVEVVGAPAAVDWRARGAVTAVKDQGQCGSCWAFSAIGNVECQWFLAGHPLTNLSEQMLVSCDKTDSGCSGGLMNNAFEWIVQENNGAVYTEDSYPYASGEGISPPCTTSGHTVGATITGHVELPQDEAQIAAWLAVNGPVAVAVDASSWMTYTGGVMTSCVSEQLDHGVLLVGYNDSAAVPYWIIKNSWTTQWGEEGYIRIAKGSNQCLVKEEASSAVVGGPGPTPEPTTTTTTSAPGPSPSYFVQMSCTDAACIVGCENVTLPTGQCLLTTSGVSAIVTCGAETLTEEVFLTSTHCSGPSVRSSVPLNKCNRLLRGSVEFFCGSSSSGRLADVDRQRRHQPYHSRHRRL
# Assay: qHTS Assay for Promiscuous and Specific Inhibitors of Cruzain (without detergent); also: nearly all actives have a fitted effect of over 40% in size;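 as to max response, negative = inhibition: plate controls were enzyme without inhibitor for no effect and buffer without enzyme for full effect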
# Details: purified cruzain, Z-FR-AMC fluorescence, no detergent
# Procedure, shortened: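 Purified cruzain at 1.5 nM, pre-incubated 15 min with compound at room temperature in 100 mM sodium acetate pH 5.5, 5 mM DTT, 0.00005% Triton X-100. Reaction started with 2 uM Z-FR-AMC; AMC fluorescence increase over 60 s gives rate.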
# Potency is read from the fitted curve at half-maximal effect; tags tell the direction and shape of the fitted curve.
SMILES,Potency,"max response, negative = inhibition"
Cc1c(C)n(Cc2ccccc2)c2ccc(C(=O)NCC(C)c3ccccc3)cc12 (configuration not stated),"inconclusive: 39.8 µM [inhibitor, single point]",–
CCOC(=O)c1oc2ccc(S(=O)(=O)n3nc(-c4ccc(OC)cc4)cc3N)cc2c1C,"inconclusive: 15.8 µM [inhibitor, partial curve]",–
CN(C)c1ccc(CNC(=O)Cc2ccc(NC(=O)N3CCCCc4ccccc43)cc2)cc1,–,inactive: 2.21%
Cc1ccccc1OC(=O)c1nc(SCc2ccccc2F)ncc1Cl,"inconclusive: 25.1 µM [inhibitor, single point]",–
CCOC(=O)Cn1c(=O)n(-c2cccc(Cl)c2)c2nc(-c3ccccc3Cl)nc(C(N)=O)c21,"inconclusive: 39.8 µM [activator, single point]",–
O=C(OCCOCCO)c1ccccc1Nc1cccc(C(F)(F)F)c1,"inconclusive: 15.8 µM [activator, single point]",–
CCc1ccc2ncc3c(-c4ccc(F)cc4)nn(CC(=O)NC4CCCCC4)c3c2c1,"inconclusive: 31.6 µM [activator, partial curve]",–
Cc1ccc2c(CC(=O)Nc3ccc(S(=O)(=O)N4CCCCC4C)cc3)coc2c1C (configuration not stated),"inconclusive: 31.6 µM [inhibitor, single point]",–
CCOC(=O)C1CCN(S(=O)(=O)c2cccc(-c3cn4cccc(C)c4n3)c2)CC1,"inconclusive: 39.8 µM [activator, single point]",–
COc1ccc(Nc2nc(-c3cccc([N+](=O)[O-])c3)nc3ccccc23)cc1,"inconclusive: 15.8 µM [inhibitor, single point]",–
COc1ccc(N2C(=O)CS(=O)(=O)C23C(=O)N(Cc2ccccc2F)c2ccccc23)cc1Cl (configuration not stated),active: 2 µM,–
COc1ccc(Br)cc1CNC(=O)c1cc(=O)[nH]c2ccc(S(=O)(=O)N3CCCCC3C)cc12 (configuration not stated),"inconclusive: 39.8 µM [activator, single point]",–
CCn1cc(C(=O)NCCc2ccccc2)c(=O)c2cc(S(=O)(=O)N3CCCCCC3)ccc21,"inconclusive: 6.31 µM [activator, single point]",–
Clc1ccc(-c2nnc(N3CCCC3)nn2)cc1,"inconclusive: 39.8 µM [inhibitor, single point]",–
O=C(O)c1cc2ccccc2c(Cc2c(O)c(C(=O)O)cc3ccccc23)c1O,–,inactive: 2.34%
O=C(CSc1nnc(CN2CCOCC2)n1-c1ccc(Cl)cc1)Nc1cc(Cl)ccc1O,"inconclusive: 31.6 µM [activator, single point]",–
COc1ccc(/C=C2\SC(c3ccc(C)cc3)=NC2=O)cc1OC,"inconclusive: 39.8 µM [activator, single point]",–
O=C(CN1C=NS(=O)(=O)c2ccccc21)Nc1ccccc1F,–,inactive: 4.14%
COc1ccc(-c2coc3c(CN4CCCCC4)c(O)c(CN4CCCCC4)c(O)c3c2=O)cc1,"inconclusive: 12.6 µM [inhibitor, single point]",–
CCOC(=O)c1ccc(NC(=O)CCCc2nc(-c3cc(OC)c(OC)c(OC)c3)no2)cc1,"inconclusive: 39.8 µM [activator, single point]",–
COc1ccc(Cc2nc(-c3cccc(C)c3)no2)cc1,"inconclusive: 0.126 µM [inhibitor, full curve, poor fit]",–

SMILES,Potency,"max response, negative = inhibition"
CC(=O)Nc1ccc(SCC(=O)c2cc(C)n(-c3ccccc3F)c2C)cc1,"inconclusive: 39.8 µM [activator, single point]",–
CCn1c(SCC(=O)Nc2sc(C)c(C)c2C#N)nnc1C(C)C,"inconclusive: 39.8 µM [activator, single point]",–
COc1ccccc1CN1C(=O)[C@@H]2C(CC(N)=O)NC3(C(=O)Nc4c3ccc(Cl)c4C)[C@@H]2C1=O (some centres not stated),"inconclusive: 39.8 µM [activator, single point]",–
COc1ccc(C(C(=O)NC2CCCCC2)N(C(=O)c2sc(C)nc2C)c2ccccc2C)cc1 (configuration not stated),"inconclusive: 31.6 µM [activator, single point]",–
O=C(NCC(c1cccnc1)N1CCN(c2ccccc2F)CC1)c1ccc(F)cc1 (configuration not stated),"inconclusive: 6.31 µM [inhibitor, single point]",–
CCCCOc1ccc(C2=NC(c3cccs3)=Nc3ccc(OC)cc3N2)cc1,"inconclusive: 39.8 µM [inhibitor, single point]",–
CC1CCC2(CC1)C(Nc1cccc(Cl)c1)=NC(=S)N2CC#N (configuration not stated),–,inactive: -9.9%
Cc1nn(C)c(C)c1S(=O)(=O)N(CC(=O)NCCc1ccc(Cl)cc1)c1ccc(C(C)C)cc1,"inconclusive: 5.01 µM [activator, single point]",–
COc1cccc2sc(N(Cc3cccnc3)C(=O)c3ccco3)nc12,"inconclusive: 39.8 µM [activator, single point]",–
CSCCC(NS(=O)(=O)c1ccc2c(c1)oc(=O)n2C)C(=O)Nc1ccc(F)c(Cl)c1 (configuration not stated),"inconclusive: 31.6 µM [inhibitor, single point]",–
N#CC1(Cc2ccccc2Cl)c2ccccc2C=CN1C(=O)c1ccccc1 (configuration not stated),"inconclusive: 39.8 µM [inhibitor, single point]",–
Cc1cccc(NC(=O)Cn2cc(S(=O)(=O)N3CCCC3)c(S(=O)(=O)N3CCCC3)c2)c1C,–,inactive: 0.602%
Cc1cccc(-c2nc3c4c(-c5ccccc5)c(-c5ccccc5)oc4ncn3n2)c1,–,inactive: 13.7%
Cc1nc2c(c(=O)n1Cc1ccco1)c1nc3ccccc3nc1n2Cc1ccccc1,"inconclusive: 31.6 µM [activator, single point]",–
CCC1CCc2nc3sc(C(=O)Nc4cccc(F)c4)c(N)c3cc2C1 (configuration not stated),active: 5.01 µM,–
COC(=O)c1ccc(C(NC(=O)OCc2ccccc2)/C(=C/[C@@H](C)C(=O)NCc2cc(C)on2)c2cccnc2)cc1 (some centres not stated),"inconclusive: 31.6 µM [activator, single point]",–
CC(=O)c1ccc(NC(=O)Cn2c(=O)cc(C)c3c(C)nn(-c4cccc(F)c4)c32)cc1,–,inactive: -3.31%
O=C(CSCCSCC(=O)c1ccco1)c1ccco1,"inconclusive: 1 µM [inhibitor, single point]",–
COc1ccc(-c2cc(C(=O)N3CCN(C(c4ccccc4)c4ccccc4)CC3)no2)cc1,"inconclusive: 39.8 µM [inhibitor, single point]",–
CCCn1c(CN(Cc2ccccc2)Cc2ccccc2)nc2c1c(=O)n(C)c(=O)n2C,"inconclusive: 31.6 µM [activator, single point]",–
COCCN(C(=O)COc1ccc(Cl)cc1)c1nnc(-c2cccnc2)s1,"inconclusive: 39.8 µM [inhibitor, single point]",–

SMILES,Potency,"max response, negative = inhibition"
COC(=O)c1ccc(Cl)cc1NC(=O)NC(C)c1c(-n2cccc2)sc(C)c1C (configuration not stated),"inconclusive: 39.8 µM [inhibitor, single point]",–
COc1ccc2c(=O)c(-c3ccccc3)coc2c1,"inconclusive: 39.8 µM [inhibitor, single point]",–
Cc1cc2c(cc3c(SCc4cccc(F)c4)nnc(C)n32)o1,"inconclusive: 31.6 µM [activator, single point]",–
CC(=O)c1ccc(NC(=O)CCCN2C(=O)/C(=C/C(C)=C/c3ccccc3)SC2=S)cc1,active: 31.6 µM,–
Cc1ccc(C2=CC(c3ccc(Cl)cc3)n3nc(-c4ccc(C)cc4)nc3N2)cc1 (configuration not stated),"inconclusive: 3.98 µM [inhibitor, single point]",–
CC(C)c1ccc(C2c3c(oc4ccc(Cl)cc4c3=O)C(=O)N2CCCN2CCOCC2)cc1 (configuration not stated),"inconclusive: 39.8 µM [activator, single point]",–
NS(=O)(=O)c1ccc(NC(=O)CSc2nnc(-c3cnccn3)n2-c2ccccc2)cc1,"inconclusive: 31.6 µM [activator, single point]",–
COc1ccc(C(CNC(=O)Cc2ccc(Cl)cc2)N2CCOCC2)cc1 (configuration not stated),–,inactive: 12.6%
CCOc1ccc(OCC)c(NC(=O)c2ccc(CNc3c(N4CCOCC4)c(=O)c3=O)cc2)c1,"inconclusive: 39.8 µM [activator, single point]",–
CC(C)(C)c1nc(NCCN2CCOCC2)c2nnn(Cc3ccccc3Cl)c2n1,"inconclusive: 25.1 µM [activator, single point]",–
CCC1=C(OC(=O)N(CC)CC)N2C(=O)OC(=NCc3ccccc3)[C@]2(C)[C@H]2C1=CC[C@H]1C(=O)N(CC(=O)OC)C(=O)[C@H]12,"inconclusive: 31.6 µM [activator, single point]",–
O=C(Cc1ccccc1)NN1C(=O)C2C3C=CC(C3)C2C1=O (configuration not stated),–,inactive: 4.5%
O=C(CCc1ccccc1)N1CCc2c([nH]c3ccccc23)C1c1ccc(Cl)cc1 (configuration not stated),"inconclusive: 15.8 µM [inhibitor, single point]",–
Cc1ccc(C2c3c(oc4ccc(Cl)cc4c3=O)C(=O)N2CCCN2CCOCC2)o1 (configuration not stated),"inconclusive: 39.8 µM [activator, single point]",–
CCn1c2ccccc2c2cc(/C(C)=N/O)ccc21,–,inactive: 1.55%
O=C(NC(c1ccc(Cl)cc1)P(=O)(Oc1ccccc1)Oc1ccccc1)OCc1ccccc1 (configuration not stated),"inconclusive: 31.6 µM [inhibitor, single point]",–
Cc1cccc(OCc2nc(-c3ccc(-n4cccc4)cc3)no2)c1,active: 20 µM,–
Fc1cc(F)c2nc(Nc3nc4cc5c(cc4s3)OCO5)sc2c1,"inconclusive: 25.1 µM [inhibitor, single point]",–
CC(=NCC(=O)O)c1ccccc1,–,inactive: 8.84%
Cc1cc(-c2ccc(S(=O)(=O)Nc3cc(Cl)ccc3C)s2)on1,–,inactive: -15%
